Out of some 39,000 compounds screened, about 220 (0.56%) showed activity. The list shows a part of the results.
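Further: static incubation at 37 °C against the wild-type strain, values averaged over two biological replicates.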

This test deals with Escherichia coli K-12 BW25113. The experiment in a line: relative growth (OD600 normalised to plate interquartile mean) (fraction); higher = less growth inhibition, active = 0.2 or less. The note with it: 50 µM; LB; incubation time: overnight (16-24 h).
As to `COc1ccccc1N=C(NO)c1nonc1N`, the relative growth is inactive: 0.938.
Then `COCCOC(=O)N1C(=O)[C@@]2(c3cc(C#CC4=CCCCC4)ccc31)[C@H](c1ccc(OCCO)cc1)N1[C@H](c3ccccc3)[C@H](c3ccccc3)OC(=O)[C@H]1[C@@H]2C(=O)NC[C@H](O)c1ccccc1`, with inactive: 1.11; and `C[C@H](CO)N1C[C@H](C)[C@@H](CN(C)C(=O)Nc2cccc3ccccc23)Oc2c(NC(=O)Nc3cccc4ccccc34)cccc2C1=O`, with inactive: 1.02.
Then `C[C@@H]1CN([C@H](C)CO)C(=O)Cc2cc(NC(=O)CCCN(C)C)ccc2O[C@@H]1CN(C)S(=O)(=O)c1ccc(F)cc1`, with inactive: 0.982; and `C[C@@H]1CN([C@H](C)CO)C(=O)c2cc(NC(=O)CCN3CCOCC3)ccc2O[C@@H]1CN(C)CC1CCCCC1`, with inactive: 1.01.
With `COc1ccc(CN(C)C[C@@H]2OCCCC[C@@H](C)Oc3ccc(NC(=O)c4ccncc4)cc3C(=O)N([C@H](C)CO)C[C@H]2C)cc1`, the relative growth is inactive: 0.988.
With `C[C@@H]1CN([C@H](C)CO)C(=O)c2cc(NC(=O)CCCN(C)C)ccc2O[C@@H](C)CCCCO[C@H]1CN(C)Cc1ccc(C(F)(F)F)cc1`, the relative growth was inactive: 0.973.
The value for `C[C@@H]1CN([C@H](C)CO)C(=O)c2cc(NC(=O)Nc3ccc(F)cc3)ccc2O[C@@H](C)CCCCO[C@H]1CN(C)Cc1ccccc1` was inactive: 1.02.
Then `COc1ccc(CN(C)C[C@H]2Oc3ccc(NC(=O)CCN4CCOCC4)cc3C(=O)N([C@H](C)CO)C[C@H]2C)cc1`, with inactive: 0.99; and `O=C(O)CNC(=O)c1cc2ccccc2[nH]1`, with inactive: 0.95; and `COc1cccc(C(=O)Nc2ccc3c(c2)C(=O)N(C)[C@H]2CC[C@@H](CC(=O)NCC(F)(F)F)O[C@H]2CO3)c1`, with inactive: 1.02.
The value for `C[C@@H]1CCCCO[C@H](CN(C)C(=O)c2ccccc2)[C@H](C)CN([C@H](C)CO)C(=O)c2cc(NC(=O)c3ccccc3)ccc2O1` was inactive: 1.04.
For `C[C@H](NC(=O)N(C)C[C@@H]1OCc2ccccc2-c2c(n(C)c3ccccc23)C(=O)N([C@H](C)CO)C[C@@H]1C)c1ccccc1`, the relative growth was inactive: 0.997.
As for `CN(C)CCCCNC(=O)[C@H]1C[C@H]2C(=O)N[C@@H](CCCCN)C(=O)N2[C@H]1c1cccc(OCCO)c1`, the relative growth is inactive: 0.982.
On to `C[C@@H]1CN([C@H](C)CO)C(=O)c2cc(NC(=O)Nc3ccc(C(F)(F)F)cc3)ccc2O[C@@H](C)CCCCO[C@@H]1CN(C)C(=O)c1ccccc1`, for which the relative growth was inactive: 1.04.
Then `C[C@H]1CN([C@@H](C)CO)C(=O)c2cc(NC(=O)c3ccncc3)ccc2O[C@H]1CN(C)Cc1ccc(-c2ccccc2)cc1`, with inactive: 1; and `CS(=O)(=O)N1C[C@H](O)COC[C@@H]2O[C@@H](CC(=O)NCc3ccccc3)CC[C@H]21`, with inactive: 0.987; and `C[C@@H]1CCCCO[C@@H](CN(C)C(=O)NC2CCCCC2)[C@H](C)CN([C@@H](C)CO)C(=O)c2cc(NC(=O)Nc3ccccc3)ccc2O1`, with inactive: 1.02.
The value for `Cc1ccc(S(=O)(=O)N(C)C[C@@H]2Oc3ccc(NS(=O)(=O)c4ccc(F)cc4)cc3CC(=O)N([C@H](C)CO)C[C@@H]2C)cc1` was inactive: 1.01; that for `C=C1C=[N+]([O-])N(c2ccc(C(=O)O)cc2)N1` was inactive: 1.03; that for `C[C@@H]1CN([C@H](C)CO)C(=O)c2cc(NC(=O)Cc3ccccc3)ccc2O[C@@H](C)CCCCO[C@H]1CN(C)C(=O)Cc1ccccc1` was inactive: 0.977.
`Cc1ccc(N2C(=O)C(=O)NC2=S)cc1`: the relative growth was inactive: 0.973.
As to `C[C@@H]1CN([C@@H](C)CO)C(=O)Cc2cc(NC(=O)CCCCCC(=O)Nc3ccccc3N)ccc2O[C@@H]1CN(C)S(C)(=O)=O`, the relative growth was inactive: 1.02.
The value for `CC(C)NC(=O)Nc1ccc2c(c1)C(=O)N([C@H](C)CO)C[C@@H](C)[C@H](CN(C)S(=O)(=O)c1cn(C)cn1)O2` was inactive: 0.979.
The value for `N=C(N)NCCN1CCCCCCC1.O=S(=O)(O)O` was inactive: 1.
Then `CCS(=O)(=O)N1C[C@]2(CCN(CC2)S(=O)(=O)c2cccs2)c2c(n(c3cc(ccc23)OC)C)[C@H]1CO`, with inactive: 0.983; and `C[C@@H]1CCCCO[C@@H](CN(C)C(=O)C2CCCCC2)[C@@H](C)CN([C@H](C)CO)C(=O)c2cc(NC(=O)Nc3ccc(F)cc3)ccc2O1`, with inactive: 1.
For `COc1ccc(S(=O)(=O)Nc2ccc3c(c2)C(=O)N([C@H](C)CO)C[C@H](C)[C@@H](CN(C)S(=O)(=O)c2ccccc2)O3)cc1`, the relative growth is inactive: 1.02.
The value for `C[C@@H]1CN([C@H](C)CO)S(=O)(=O)c2ccc(-c3cncnc3)cc2O[C@@H]1CN(C)C(=O)Cc1ccncc1` was inactive: 0.996; that for `CC(C)(C)c1csc(-c2ccc(-c3cccs3)s2)n1` was inactive: 0.916.
Then `CCCC#Cc1ccc2c(c1)O[C@H](CN(C)Cc1ccc3c(c1)OCO3)[C@H](C)CN([C@H](C)CO)S2(=O)=O`, with inactive: 1.05; and `C[C@@H]1CCCCO[C@@H](CN(C)Cc2ccc3c(c2)OCO3)[C@H](C)CN([C@@H](C)CO)C(=O)c2cc(NS(=O)(=O)c3ccccc3)ccc2O1`, with inactive: 0.982; and `CO[C@@H]1CN(C)C(=O)c2ccc(NS(C)(=O)=O)cc2OC[C@@H](C)N(C(=O)c2ccc3c(c2)OCO3)C[C@H]1C`, with inactive: 0.989.
Then `C[C@H](CO)N1C[C@H](C)[C@@H](CN(C)C(=O)c2cccc(F)c2)Oc2cc(-c3ccncc3)ccc2S1(=O)=O`, with inactive: 1.02; and `CN(C)CCC(c1ccc(Cl)cc1)c1ccccn1.O=C(O)C=CC(=O)O` (centres undefined), with inactive: 0.956; and `C[C@H](CO)N1C[C@H](C)[C@H](CN(C)C(=O)c2ccccc2)OCCCC[C@H](C)Oc2ccc(NC(=O)Nc3ccc(F)cc3)cc2C1=O`, with inactive: 1.03.
As to `O=C(C[C@@H]1CC[C@@H]2[C@H](COC[C@@H](O)CN2S(=O)(=O)c2ccccc2)O1)NCCN1CCCCC1`, the relative growth is inactive: 1.02.
Consider `OCC1OC(OCCc2ccc(O)cc2)C(O)C(O)C1O` (centres undefined), for which the relative growth is inactive: 0.958.
The value for `C=CCNC(=O)[C@@H]1[C@H]2C(=O)O[C@H](c3ccccc3)[C@H](c3ccccc3)N2[C@H](c2ccc(OCCO)cc2)[C@@]12C(=O)N(C(=O)OCCOC)c1ccc(C#Cc3ccc(OC)cc3)cc12` was inactive: 1.02; that for `CO[C@@H]1CN(C)C(=O)c2cc(NS(=O)(=O)CC(F)(F)F)ccc2OC[C@@H](C)N(Cc2ccccn2)C[C@H]1C` was inactive: 0.999; that for `C[C@H]1CN([C@@H](C)CO)C(=O)c2cccc(NS(=O)(=O)c3cn(C)cn3)c2O[C@@H]1CN(C)Cc1ccc2c(c1)OCO2` was inactive: 0.993.
With `C[C@@H]1CN([C@@H](C)CO)C(=O)c2cccc(NC(=O)Nc3ccc(F)cc3)c2O[C@H]1CN(C)Cc1ccc(Oc2ccccc2)cc1`, the relative growth is inactive: 0.956.
The value for `C[C@@H]1CN([C@H](C)CO)C(=O)c2cccc(NC(=O)Nc3ccc(C(F)(F)F)cc3)c2O[C@H]1CN(C)C(=O)Nc1ccc(F)cc1` was inactive: 0.889.
On to `COc1ccc(S(=O)(=O)N(C)C[C@H]2Oc3ccc(NS(=O)(=O)c4ccc(C)cc4)cc3CC(=O)N([C@H](C)CO)C[C@H]2C)cc1`, for which the relative growth was inactive: 1.02.
With `C[C@@H]1CN([C@@H](C)CO)C(=O)c2cc(NC(=O)CCC(F)(F)F)ccc2O[C@@H](C)CCCCO[C@@H]1CN(C)C(=O)CCC(F)(F)F`, the relative growth is inactive: 0.985.
Then `COc1ccc(cc1)NC(=O)N1C[C@]2(C1)CN([C@H](CO)c1[nH]c3cc(ccc3c12)OC)C(=O)CN1CCOCC1`, with inactive: 1.02.
For `C[C@H]1CN([C@@H](C)CO)C(=O)c2cccc(NS(=O)(=O)c3cn(C)cn3)c2O[C@@H]1CN(C)CC1CC1`, the relative growth was inactive: 0.997.
Then `COc1ccc(CN(C)C[C@@H]2OCCCC[C@H](C)Oc3ccc(NC(=O)CCC(F)(F)F)cc3C(=O)N([C@@H](C)CO)C[C@@H]2C)cc1`, with inactive: 0.997; and `C[C@@H]1CCCCO[C@H](CN(C)Cc2ccc3c(c2)OCO3)[C@H](C)CN([C@H](C)CO)C(=O)c2cc(NC(=O)Nc3ccc(C(F)(F)F)cc3)ccc2O1`, with inactive: 1.01.
Then `C[C@@H]1CN([C@H](C)CO)S(=O)(=O)c2ccc(C#CC3CCCCC3)cc2O[C@@H]1CN(C)C(=O)Cc1ccncc1`, with inactive: 0.996; and `C[C@@H]1CN([C@@H](C)CO)C(=O)c2cccc(NC(=O)NC3CCCCC3)c2O[C@@H]1CN(C)Cc1ccc(C(F)(F)F)cc1`, with inactive: 1.02.
Then `NC(=O)[C@@H]1CC[C@@H]2CN1C(=O)N2OS(=O)(=O)O`, with active: 0.19; and `CC1(O)CCOC(=O)C1` (centres undefined), with inactive: 0.908; and `C[C@H]1CN([C@@H](C)CO)C(=O)Cc2cc(NC(=O)CCCCCC(=O)Nc3ccccc3N)ccc2O[C@H]1CN(C)Cc1ccccc1`, with inactive: 0.99.
`CC1CCC(NC(=O)N(CCCl)N=O)CC1` (centres undefined): the relative growth is inactive: 1.13.
As for `COc1ccc(NC(=O)Nc2ccc3c(c2)[C@@H]2C[C@H](CC(=O)NCc4ccc(-c5ccccc5)cc4)O[C@@H](CO)[C@@H]2O3)cc1`, the relative growth was inactive: 0.997.
The value for `C[C@@H]1CN([C@@H](C)CO)C(=O)c2cccc(NC(=O)C3CCCCC3)c2O[C@@H]1CN(C)Cc1ccc(-c2ccccc2)cc1` was inactive: 0.988; that for `COc1ccc(S(=O)(=O)N(C)C[C@@H]2Oc3ncc(C#Cc4ccc(OC)c(OC)c4)cc3C(=O)N([C@H](C)CO)C[C@@H]2C)cc1` was inactive: 0.91.
Then `C[C@H]1CN([C@@H](C)CO)C(=O)c2cc(NS(=O)(=O)c3cn(C)cn3)ccc2O[C@@H]1CN(C)S(=O)(=O)c1ccc(Cl)cc1`, with inactive: 0.999.

These data come from the supplement of paper PMC9446081.
